{
  "source": "patent US20260306644A1",
  "about": "“ANTIBODY RECRUITING MOLECULES FOR THE TREATMENT OF CORONAVIRUS DISEASE-19” (priority 2023, published 2026)",
  "note": "Positions of bridges follow the written chain, without caps; N, C: chain ends. Non-standard residues stand in square brackets, D forms with d. Residues, ends and D or L forms follow the SMILES beside them. No end group written: not given here. PEG8 = NCCOCCOCCOCCOCCOCCOCCOCCOCCC(=O)O",
  "data": [
    {"biological_target": "SARS-CoV-2 Spike glycoprotein Receptor Binding Domain (RBD) (Severe acute respiratory syndrome coronavirus 2, UniProt P0DTC2)", "test": "Ligand binding to SARS-CoV-2 Spike glycoprotein Receptor Binding Domain (RBD) by BLI", "details": "biotinylated Spike RBD, 1:1 global fit", "values": [
      {"compound": "Ac-QKIYEIMRLCDELGHAEACMRVSDLIYEFMKKGDCAWHLGELVWCT-NH2 (disulfide 10-19, 35-45) [Compound 164]", "Octet SARS-CoV-2 Spike RBD Protein Binding KD": "Weak Binding"},
      {"compound": "Ac-EIMRLLDELGHAEASMRVSDLIYEFMKKGDERLLEEAERLLEEVER [Compound 235]", "Octet SARS-CoV-2 Spike RBD Protein Binding KD": "No Binding"},
      {"compound": "CC[C@H](C)[C@H](NC(=O)[C@H](Cc1c[nH]c2ccccc12)NC(=O)[C@H](CCC(=O)O)NC(=O)[C@H](CCCCN)NC(=O)[C@H](CC(=O)O)NC(C)=O)C(=O)N[C@@H](CC(C)C)C(=O)N[C@@H](CCC(N)=O)C(=O)N[C@@H](CCCCN)C(=O)N[C@H](C(=O)N[C@@H](Cc1ccc(O)cc1)C(=O)N[C@@H](CCC(=O)O)C(=O)N[C@H](C(=O)N[C@@H](CCSC)C(=O)N[C@@H](CCCNC(=N)N)C(=O)N[C@@H](CC(C)C)C(=O)N[C@@H](CC(C)C)C(=O)N[C@@H](CC(=O)O)C(=O)N[C@@H](CCC(=O)O)C(=O)N[C@@H](CC(C)C)C(=O)NCC(=O)N[C@@H](Cc1c[nH]cn1)C(=O)N[C@@H](C)C(=O)N[C@@H](CCC(=O)O)C(=O)N[C@@H](C)C(=O)N[C@@H](CO)C(=O)N[C@@H](CCSC)C(=O)N[C@@H](CCCNC(=N)N)C(=O)N[C@H](C(=O)N[C@@H](CO)C(=O)NCCOCCOCCOCCOCCOCCOCCOCCOCCC(=O)NCCOCCOCCOCCOCCOCCOCCOCCOCCC(=O)N[C@@H](CC(=O)O)C(=O)N[C@H]1CSSC[C@@H](C(=O)N[C@H](C(N)=O)[C@@H](C)O)NC(=O)[C@H](Cc2c[nH]c3ccccc23)NC(=O)[C@H](C(C)C)NC(=O)[C@H](CC(C)C)NC(=O)[C@H](CCC(=O)O)NC(=O)CNC(=O)[C@H](CC(C)C)NC(=O)[C@H](Cc2c[nH]cn2)NC(=O)[C@H](Cc2c[nH]c3ccccc23)NC(=O)[C@H](C)NC1=O)C(C)C)[C@@H](C)CC)[C@@H](C)CC", "note": "[Compound 153]", "Octet SARS-CoV-2 Spike RBD Protein Binding KD": "Weak Binding"},
      {"compound": "CC[C@H](C)[C@H](NC(=O)[C@H](Cc1c[nH]c2ccccc12)NC(=O)[C@H](CCC(=O)O)NC(=O)[C@H](CCCCN)NC(=O)[C@H](CC(=O)O)NC(C)=O)C(=O)N[C@@H](CC(C)C)C(=O)N[C@@H](CCC(N)=O)C(=O)N[C@@H](CCCCN)C(=O)N[C@H](C(=O)N[C@@H](Cc1ccc(O)cc1)C(=O)N[C@@H](CCC(=O)O)C(=O)N[C@H](C(=O)N[C@@H](CCSC)C(=O)N[C@@H](CCCNC(=N)N)C(=O)N[C@@H](CC(C)C)C(=O)N[C@@H](CC(C)C)C(=O)N[C@@H](CC(=O)O)C(=O)N[C@@H](CCC(=O)O)C(=O)N[C@@H](CC(C)C)C(=O)NCC(=O)NCCOCCOCCOCCOCCOCCOCCOCCOCCC(=O)O)[C@@H](C)CC)[C@@H](C)CC", "note": "[Compound 228] (Ac-DKEWILQKIYEIMRLLDELG[PEG8]-OH)", "Octet SARS-CoV-2 Spike RBD Protein Binding KD": "No Binding"},
      {"compound": "CC[C@H](C)[C@H](NC(=O)[C@H](Cc1c[nH]c2ccccc12)NC(=O)[C@H](CCC(=O)O)NC(=O)[C@H](CCCCN)NC(=O)[C@H](CC(=O)O)NC(C)=O)C(=O)N[C@@H](CC(C)C)C(=O)N[C@@H](CCC(N)=O)C(=O)N[C@@H](CCCCN)C(=O)N[C@H](C(=O)N[C@@H](Cc1ccc(O)cc1)C(=O)N[C@@H](CCC(=O)O)C(=O)N[C@H](C(=O)N[C@@H](CCSC)C(=O)N[C@@H](CCCNC(=N)N)C(=O)N[C@@H](CC(C)C)C(=O)N[C@@H](CC(C)C)C(=O)N[C@@H](CC(=O)O)C(=O)N[C@@H](CCC(=O)O)C(=O)N[C@@H](CC(C)C)C(=O)NCC(=O)N[C@@H](Cc1c[nH]cn1)C(=O)N[C@@H](C)C(=O)N[C@@H](CCC(=O)O)C(=O)N[C@@H](C)C(=O)N[C@@H](CO)C(=O)NCCOCCOCCOCCOCCOCCOCCOCCOCCC(=O)NCCOCCOCCOCCOCCOCCOCCOCCOCCC(=O)N[C@@H](CC(=O)O)C(=O)N[C@H]1CSSC[C@@H](C(=O)N[C@H](C(N)=O)[C@@H](C)O)NC(=O)[C@H](Cc2c[nH]c3ccccc23)NC(=O)[C@H](C(C)C)NC(=O)[C@H](CC(C)C)NC(=O)[C@H](CCC(=O)O)NC(=O)CNC(=O)[C@H](CC(C)C)NC(=O)[C@H](Cc2c[nH]cn2)NC(=O)[C@H](Cc2c[nH]c3ccccc23)NC(=O)[C@H](C)NC1=O)[C@@H](C)CC)[C@@H](C)CC", "note": "[Compound 152]", "Octet SARS-CoV-2 Spike RBD Protein Binding KD": "Weak Binding"}
    ]},
    {"biological_target": "SARS-CoV-2 Spike glycoprotein Receptor Binding Domain (RBD) (Severe acute respiratory syndrome coronavirus 2, UniProt P0DTC2)", "test": "Ligand binding to SARS-CoV-2 Spike glycoprotein Receptor Binding Domain (RBD) by BLI", "details": "biotinylated Spike RBD, 1:1 global fit, read-out: Octet SARS-CoV-2 Spike RBD Protein Binding KD", "units": {"Kd": "pM"}, "values": [
      {"compound": "Ac-DKEWILQKIYEIMRLLDELGHAEASMRVSDLIYEFMKKGPASPASPASPASDCAWHLGELVWCT (disulfide 53-63) [Compound 167]", "Kd": 327},
      {"compound": "DKEWILQKIYEIMRLLDELGHAEASMRVSDLIYEFMKKGDERLLEEAERLLEEVERGQAPGQAPDCAWHLGELVWCT-NH2 (disulfide 66-76) [Compound 174]", "Kd": 787},
      {"compound": "Ac-DKEWILQKIYEIMRLLDELGHAEASMRVSDLIYEFMKKGGGGGGGGGDCAWHLGELVWCT (disulfide 49-59) [Compound 166]", "Kd": 444},
      {"compound": "DKEWILQKIYEIMRLLDELGHAEASMRVSDLIYEFMKKGDERLLEEAERLLEEVEREAAAKEAAAKDCAWHLGELVWCT-NH2 (disulfide 68-78) [Compound 173]", "Kd": 552},
      {"compound": "Ac-DKEWILQKIYEIMRLLDELGHAEASMRVSDLIYEFMKKGDERLLEEAERLLEEVERPASPASPASPASDCAWHLGELVWCT (disulfide 70-80) [Compound 165]", "Kd": "< 1"}
    ]},
    {"biological_target": "SARS-CoV-2 Spike glycoprotein Receptor Binding Domain (RBD) (Severe acute respiratory syndrome coronavirus 2, UniProt P0DTC2)", "test": "Ligand binding to SARS-CoV-2 Spike glycoprotein Receptor Binding Domain (RBD) by BLI", "details": "biotinylated Spike RBD, unit pM printed in cell, read-out: Octet SARS-CoV-2 Spike RBD Protein Binding KD (cell printed in pM)", "units": {"Kd": "pM"}, "values": [
      {"compound": "SDKEWILQKIYEIMRLLDELGHAPASMRVSDLIYEFMKKG-NH2 [Compound 192]", "Kd": "< 1"},
      {"compound": "CC[C@H](C)[C@H](NC(=O)[C@H](CC(C)C)NC(=O)[C@H](CC(=O)O)NC(=O)[C@H](CO)NC(=O)[C@@H](NC(=O)[C@H](CCCNC(=N)N)NC(=O)[C@H](CCSC)NC(=O)[C@H](CO)NC(=O)[C@H](C)NC(=O)[C@H](CCC(=O)O)NC(=O)[C@H](C)NC(=O)[C@H](Cc1c[nH]cn1)NC(=O)CNC(=O)[C@H](CC(C)C)NC(=O)[C@H](CCC(=O)O)NC(=O)[C@H](CC(=O)O)NC(=O)[C@H](CC(C)C)NC(=O)[C@H](CC(C)C)NC(=O)[C@H](CCCNC(=N)N)NC(=O)[C@H](CCSC)NC(=O)[C@@H](NC(=O)[C@H](CCC(=O)O)NC(=O)[C@H](Cc1ccc(O)cc1)NC(=O)[C@@H](NC(=O)[C@H](CCCCN)NC(=O)[C@H](CCC(N)=O)NC(=O)[C@H](CC(C)C)NC(=O)[C@@H](NC(=O)[C@H](Cc1c[nH]c2ccccc12)NC(=O)[C@H](CCC(=O)O)NC(=O)[C@H](CCCCN)NC(=O)[C@@H](N)CC(=O)O)[C@@H](C)CC)[C@@H](C)CC)[C@@H](C)CC)C(C)C)C(=O)N[C@@H](Cc1ccc(O)cc1)C(=O)N[C@@H](CCC(=O)O)C(=O)N[C@@H](Cc1ccccc1)C(=O)N[C@@H](CCSC)C(=O)N[C@@H](CCCCN)C(=O)N[C@@H](CCCCN)C(=O)NCC(=O)NCC(=O)NCC(=O)NCC(=O)N[C@@H](CC(=O)O)C(=O)N[C@H]1CSSC[C@@H](C(=O)N[C@H](C(=O)O)[C@@H](C)O)NC(=O)[C@H](Cc2c[nH]c3ccccc23)NC(=O)[C@H](C(C)C)NC(=O)[C@H](CC(C)C)NC(=O)[C@H](CCC(=O)O)NC(=O)CNC(=O)[C@H](CC(C)C)NC(=O)[C@H](Cc2c[nH]cn2)NC(=O)[C@H](Cc2c[nH]c3ccccc23)NC(=O)[C@H](C)NC1=O", "note": "[Compound 106]", "Kd": "< 1"},
      {"compound": "CC[C@H](C)[C@H](NC(=O)[C@H](CC(C)C)NC(=O)[C@H](CC(=O)O)NC(=O)[C@H](CO)NC(=O)[C@@H](NC(=O)[C@H](CCCNC(=N)N)NC(=O)[C@H](CCSC)NC(=O)[C@H](CO)NC(=O)[C@H](C)NC(=O)[C@H](CCC(=O)O)NC(=O)[C@H](C)NC(=O)[C@H](Cc1c[nH]cn1)NC(=O)CNC(=O)[C@H](CC(C)C)NC(=O)[C@H](CCC(=O)O)NC(=O)[C@H](CC(=O)O)NC(=O)[C@H](CC(C)C)NC(=O)[C@H](CC(C)C)NC(=O)[C@H](CCCNC(=N)N)NC(=O)[C@H](CCSC)NC(=O)[C@@H](NC(=O)[C@H](CCC(=O)O)NC(=O)[C@H](Cc1ccc(O)cc1)NC(=O)[C@@H](NC(=O)[C@H](CCCCN)NC(=O)[C@H](CCC(N)=O)NC(=O)[C@H](CC(C)C)NC(=O)[C@@H](NC(=O)[C@H](Cc1c[nH]c2ccccc12)NC(=O)[C@H](CCC(=O)O)NC(=O)[C@H](CCCCN)NC(=O)[C@H](CC(=O)O)NC(C)=O)[C@@H](C)CC)[C@@H](C)CC)[C@@H](C)CC)C(C)C)C(=O)N[C@@H](Cc1ccc(O)cc1)C(=O)N[C@@H](CCC(=O)O)C(=O)N[C@@H](Cc1ccccc1)C(=O)N[C@@H](CCSC)C(=O)N[C@@H](CCCCN)C(=O)N[C@@H](CCCCN)C(=O)NCC(=O)NCC(=O)NCC(=O)NCC(=O)N[C@@H](CC(=O)O)C(=O)N[C@H]1CSSC[C@@H](C(=O)N[C@H](C(=O)O)[C@@H](C)O)NC(=O)[C@H](Cc2c[nH]c3ccccc23)NC(=O)[C@H](C(C)C)NC(=O)[C@H](CC(C)C)NC(=O)[C@H](CCC(=O)O)NC(=O)CNC(=O)[C@H](CC(C)C)NC(=O)[C@H](Cc2c[nH]cn2)NC(=O)[C@H](Cc2c[nH]c3ccccc23)NC(=O)[C@H](C)NC1=O", "note": "[Compound 107]", "Kd": "< 1"},
      {"compound": "CC[C@H](C)[C@H](NC(=O)[C@H](CC(C)C)NC(=O)[C@H](CC(=O)O)NC(=O)[C@H](CO)NC(=O)[C@@H](NC(=O)[C@H](CCCNC(=N)N)NC(=O)[C@H](CCSC)NC(=O)[C@H](CO)NC(=O)[C@H](C)NC(=O)[C@H](CCC(=O)O)NC(=O)[C@H](C)NC(=O)[C@H](Cc1c[nH]cn1)NC(=O)CNC(=O)[C@H](CC(C)C)NC(=O)[C@H](CCC(=O)O)NC(=O)[C@H](CC(=O)O)NC(=O)[C@H](CC(C)C)NC(=O)[C@H](CC(C)C)NC(=O)[C@H](CCCNC(=N)N)NC(=O)[C@H](CCSC)NC(=O)[C@@H](NC(=O)[C@H](CCC(=O)O)NC(=O)[C@H](Cc1ccc(O)cc1)NC(=O)[C@@H](NC(=O)[C@H](CCCCN)NC(=O)[C@H](CCC(N)=O)NC(=O)[C@H](CC(C)C)NC(=O)[C@@H](NC(=O)[C@H](Cc1c[nH]c2ccccc12)NC(=O)[C@H](CCC(=O)O)NC(=O)[C@H](CCCCN)NC(=O)[C@H](CC(=O)O)NC(C)=O)[C@@H](C)CC)[C@@H](C)CC)[C@@H](C)CC)C(C)C)C(=O)N[C@@H](Cc1ccc(O)cc1)C(=O)N[C@@H](CCC(=O)O)C(=O)N[C@@H](Cc1ccccc1)C(=O)N[C@@H](CCSC)C(=O)N[C@@H](CCCCN)C(=O)N[C@@H](CCCCN)C(=O)NCC(=O)NCCOCCOCCOCCOCCOCCOCCOCCOCCC(=O)NCCOCCOCCOCCOCCOCCOCCOCCOCCNC(=O)[C@@H]1CSCC(=O)N[C@@H](C)C(=O)N[C@@H](CO)C(=O)N[C@@H](Cc2ccc(O)cc2)C(=O)N[C@@H](Cc2c[nH]cn2)C(=O)N[C@@H](CC(C)C)C(=O)NCC(=O)N[C@@H](CCC(=O)O)C(=O)N[C@@H](CC(C)C)C(=O)N[C@@H](C(C)C)C(=O)N[C@@H](Cc2c[nH]c3ccccc23)C(=O)N2Cc3ccccc3C[C@H]2C(=O)NC(C)(C)C(=O)N1", "note": "[Compound 160]", "Kd": 1.2}
    ]}
  ]
}
